# Among all 310,000 compounds or so, about 2,200 (0.71%) showed an effect of 50% or more. The effect is printed as a negative number. Some of the results follow.
# Biological target: human ether-à-go-go-related gene (hERG) potassium channel (human, UniProt Q12809)
# Test: primary screen, population patch clamp on CHO cells stably expressing hERG
# Chain of human ether-à-go-go-related gene (hERG) potassium channel (Q12809 whole entry, looked up): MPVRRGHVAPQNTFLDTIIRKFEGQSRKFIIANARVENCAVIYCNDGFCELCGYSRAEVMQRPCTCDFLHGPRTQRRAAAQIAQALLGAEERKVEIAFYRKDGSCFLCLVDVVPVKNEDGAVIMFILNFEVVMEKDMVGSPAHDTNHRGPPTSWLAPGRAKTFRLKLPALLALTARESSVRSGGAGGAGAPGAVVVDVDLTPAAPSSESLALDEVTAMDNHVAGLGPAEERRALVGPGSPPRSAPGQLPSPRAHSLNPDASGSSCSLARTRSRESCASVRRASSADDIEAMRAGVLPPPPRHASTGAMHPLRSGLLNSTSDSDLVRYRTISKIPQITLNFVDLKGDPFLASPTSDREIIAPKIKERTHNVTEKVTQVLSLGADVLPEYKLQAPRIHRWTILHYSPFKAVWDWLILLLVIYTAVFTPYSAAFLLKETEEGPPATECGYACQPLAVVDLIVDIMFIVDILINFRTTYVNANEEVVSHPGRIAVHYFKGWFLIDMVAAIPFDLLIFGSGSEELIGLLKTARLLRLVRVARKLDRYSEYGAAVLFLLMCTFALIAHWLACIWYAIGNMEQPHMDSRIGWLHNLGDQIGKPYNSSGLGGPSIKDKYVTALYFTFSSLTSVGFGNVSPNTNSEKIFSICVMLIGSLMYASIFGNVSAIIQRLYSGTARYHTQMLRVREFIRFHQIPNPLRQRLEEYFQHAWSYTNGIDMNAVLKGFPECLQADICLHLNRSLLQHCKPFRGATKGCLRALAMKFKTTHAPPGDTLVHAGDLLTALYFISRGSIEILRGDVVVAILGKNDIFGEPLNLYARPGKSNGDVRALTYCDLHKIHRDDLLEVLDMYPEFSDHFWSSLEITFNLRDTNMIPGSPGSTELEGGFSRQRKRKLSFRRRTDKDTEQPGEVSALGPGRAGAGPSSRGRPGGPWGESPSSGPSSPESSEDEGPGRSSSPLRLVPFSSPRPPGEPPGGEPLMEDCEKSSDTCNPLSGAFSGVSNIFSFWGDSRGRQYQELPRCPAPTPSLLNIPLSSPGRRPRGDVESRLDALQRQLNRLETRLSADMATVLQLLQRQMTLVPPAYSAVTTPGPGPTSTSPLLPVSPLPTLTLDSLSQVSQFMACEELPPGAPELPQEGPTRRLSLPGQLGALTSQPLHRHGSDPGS
row,Compound,"hERG current change (%, negative = inhibition) at 1uM [%]"
1,Cc1cc(=O)oc2cc3c(cc12)CCCN3,15.7
2,C=CCc1ccccc1OCCNCCCOC.O=C(O)C(=O)O,0.365
3,COc1ccc(-c2ccc(F)cc2)cc1[C@H]1[C@H]2C=CC[C@@H](C)[C@@H]2C(=O)N1Cc1ccccc1,13
4,Oc1ccc(C[C@@H]2CNCCN2CCCCC2CCCCC2)cc1,10.4
5,O=C(CN1C(=O)S/C(=C\c2ccc(Cl)cc2)C1=O)NNC(=O)c1ccccc1O,3.99
6,CN(C(=O)c1cc2c(=O)n3ccccc3nc2s1)C1CCCCC1,10.1
7,O=C(Nc1ccccc1C(=O)N1CCOCC1)c1ccc(CSc2ccccc2)cc1,4.5
8,C#CCOCCOCCOCCNc1nc(N2CCN(C(=O)CCCCCCCCCCNC(=O)[C@H](CO)n3cc(CCCSC)nn3)CC2)nc(N2CCN(C(=O)CCCCCCCCCCNC(=O)[C@H](CCCCN)n3cc(C[C@@H](C)CC)nn3)CC2)n1,6.98
9,O=S(=O)(c1ccc(F)cc1)N1CCCC1,11.4
10,CCC(Sc1nc(C)cc(=O)[nH]1)C(=O)Nc1ccc(Cl)cn1 (stereo not drawn),19.4
11,Clc1ccc(-c2cn3ccccc3n2)cc1,11.4
12,C=CCNC(=S)N/N=C/c1ccc(-c2ccc(OC)cc2)o1,9.61
13,COc1ccccc1NC(=O)CN1CCC(c2nc3ccccc3[nH]2)CC1,-9.36
14,C=CCn1c(SC2CCOC2=O)nc2sc(C)c(C)c2c1=O (stereo not drawn),6.32
15,COC(=O)Cc1cc(=O)n2[nH]c(C)cc2n1,12.2
16,CCc1nnc(NC(=O)Cn2c(=O)oc3ccccc32)s1,3.26
17,CC1(C)CC(=O)C=C(Nc2ccc(F)cc2)C1,2.97
18,Cc1ccc(NC(=O)C2(S(=O)(=O)c3ccc(Cl)cc3)CC2)cc1,4.56
19,COC(=O)[C@@H]1Cc2c([nH]c3ccccc23)C(C)(C)N1C(=O)CCl,6.4
20,C=C(C)CNC(=S)N1CCN(C(c2ccccc2)c2ccccc2)CC1,9.41
21,Cn1cc(C(=O)N2CCc3ccccc3C2)c(=O)c2cc(S(=O)(=O)N3CCOCC3)ccc21,7.33
22,COc1ccc(/C=C2\N=C(SC)NC2=O)cc1,11.3
23,O=c1[nH]c2ccccc2c(O)c1SCCO,9.45
24,NC(=O)C1CCN(C(=O)/C(=C/c2ccccc2)NC(=O)c2ccccc2)CC1,14.9
